The other results are listed elsewhere or left out.
Columns and labels:
Experiment in all cases: glycan array binding signal (z-score within array); higher = stronger binding
Conditions in all cases: glycan notation: IUPAC condensed, linker removed
Fuc(a1-2)Gal = biological target: Fuc(a1-2)Gal
Method in brief: (§1)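 Glycan array binding is given as a within-array Z-score, which can be read as non-binding when negative. The arrays, 3228 of them, came from the Consortium for Functional Glycomics database and were retained only where the protein sequence was available. Z-scores were averaged across arrays of the same protein sequence at different concentrations or buffers and across linkers.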

Fuc(a1-2)Gal(b1-3)GalNAc = biological target: Fuc(a1-2)Gal(b1-3)GalNAc
Method in brief: as §1

[1] = biological target: Fuc(a1-2)Gal(b1-3)GalNAc(a1-3)[Fuc(a1-2)]Gal(b1-4)Glc
Method in brief: as §1

[2] = biological target: Fuc(a1-2)Gal(b1-3)GalNAc(a1-3)[Fuc(a1-2)]Gal(b1-4)GlcNAc
Method in brief: as §1

[3] = biological target: Fuc(a1-2)Gal(b1-3)GalNAc(b1-3)Gal
Method in brief: as §1

[4] = biological target: Fuc(a1-2)Gal(b1-3)GalNAc(b1-3)Gal(a1-4)Gal(b1-4)Glc
Method in brief: as §1

[5] = biological target: Fuc(a1-2)Gal(b1-3)GalNAc(b1-4)[Neu5Ac(a2-3)]Gal(b1-4)Glc
Method in brief: as §1

Fuc(a1-2)Gal(b1-3)GlcNAc = biological target: Fuc(a1-2)Gal(b1-3)GlcNAc
Method in brief: as §1

[6] = biological target: Fuc(a1-2)Gal(b1-3)GlcNAc(b1-2)Man(a1-3)[Fuc(a1-2)Gal(b1-3)GlcNAc(b1-2)Man(a1-6)]Man(b1-4)GlcNAc(b1-4)GlcNAc
Method in brief: as §1

[7] = biological target: Fuc(a1-2)Gal(b1-3)GlcNAc(b1-2)Man(a1-3)[Fuc(a1-2)Gal(b1-3)GlcNAc(b1-2)Man(a1-6)]Man(b1-4)GlcNAc(b1-4)[Fuc(a1-6)]GlcNAc
Method in brief: as §1

[8] = biological target: Fuc(a1-2)Gal(b1-3)GlcNAc(b1-3)Gal(b1-4)Glc
Method in brief: as §1

[9] = biological target: Fuc(a1-2)Gal(b1-3)GlcNAc(b1-3)GalNAc
Method in brief: as §1

[10] = biological target: Fuc(a1-2)Gal(b1-3)GlcNAc(b1-3)[Fuc(a1-2)Gal(b1-3)GlcNAc(b1-6)]GalNAc
Method in brief: as §1

[11] = biological target: Fuc(a1-2)Gal(b1-3)GlcNAc(b1-3)[Gal(b1-4)GlcNAc(b1-6)]Gal(b1-4)Glc
Method in brief: as §1

[12] = biological target: Fuc(a1-2)Gal(b1-3)GlcNAc(b1-3)[Neu5Ac(a2-6)Gal(b1-4)GlcNAc(b1-6)]Gal(b1-4)Glc
Method in brief: as §1

[13] = biological target: Fuc(a1-2)Gal(b1-3)GlcNAc6S
Method in brief: as §1

[14] = biological target: Fuc(a1-2)Gal(b1-3)[Fuc(a1-4)]GlcNAc
Method in brief: as §1

[15] = biological target: Fuc(a1-2)Gal(b1-3)[Fuc(a1-4)]GlcNAc(b1-2)Man(a1-3)[Fuc(a1-2)Gal(b1-3)[Fuc(a1-4)]GlcNAc(b1-2)Man(a1-3)]Man(b1-4)GlcNAc(b1-4)GlcNAc
Method in brief: as §1

[16] = biological target: Fuc(a1-2)Gal(b1-3)[Fuc(a1-4)]GlcNAc(b1-2)Man(a1-3)[Fuc(a1-2)Gal(b1-3)[Fuc(a1-4)]GlcNAc(b1-2)Man(a1-6)]Man(b1-4)GlcNAc(b1-4)[Fuc(a1-6)]GlcNAc(b1-4)[Fuc(a1-6)]GlcNAc
Method in brief: as §1

[17] = biological target: Fuc(a1-2)Gal(b1-3)[Fuc(a1-4)]GlcNAc(b1-3)[Fuc(a1-3)[Gal(b1-4)]GlcNAc(b1-6)]Gal(b1-4)Glc
Method in brief: as §1

[18] = biological target: Fuc(a1-2)Gal(b1-3)[Fuc(a1-4)]GlcNAc(b1-3)[Gal(b1-4)GlcNAc(b1-6)]Gal(b1-4)Glc
Method in brief: as §1

[19] = biological target: Fuc(a1-2)Gal(b1-4)Fuc(a1-3)]GlcNAc(b1-2)Man(a1-3)[Fuc(a1-2)Gal(b1-4)[Fuc(a1-3)]GlcNAc(b1-2)Man(a1-6)]Man(b1-4)GlcNAc(b1-4)GlcNAc
Method in brief: as §1

Fuc(a1-2)Gal(b1-4)Glc = biological target: Fuc(a1-2)Gal(b1-4)Glc
Method in brief: as §1

Fuc(a1-2)Gal(b1-4)Glc6S = biological target: Fuc(a1-2)Gal(b1-4)Glc6S
Method in brief: as §1

Fuc(a1-2)Gal(b1-4)GlcNAc = biological target: Fuc(a1-2)Gal(b1-4)GlcNAc
Method in brief: as §1

[20] = biological target: Fuc(a1-2)Gal(b1-4)GlcNAc(b1-2)Man
Method in brief: as §1

[21] = biological target: Fuc(a1-2)Gal(b1-4)GlcNAc(b1-2)Man(a1-3)[Fuc(a1-2)Gal(b1-4)GlcNAc(b1-2)Man(a1-6)]Man(b1-4)GlcNAc(b1-4)GlcNAc
Method in brief: as §1

[22] = biological target: Fuc(a1-2)Gal(b1-4)GlcNAc(b1-2)Man(a1-3)[Fuc(a1-2)Gal(b1-4)GlcNAc(b1-2)Man(a1-6)]Man(b1-4)GlcNAc(b1-4)[Fuc(a1-6)]GlcNAc
Method in brief: as §1

[23] = biological target: Fuc(a1-2)Gal(b1-4)GlcNAc(b1-2)[Fuc(a1-2)Gal(b1-4)GlcNAc(b1-4)]Man(a1-3)[Fuc(a1-2)Gal(b1-4)GlcNAc(b1-2)Man(a1-6)]Man(b1-4)GlcNAc(b1-4)GlcNAc
Method in brief: as §1

[24] = biological target: Fuc(a1-2)Gal(b1-4)GlcNAc(b1-3)Gal(b1-4)GlcNAc
Method in brief: as §1

B1: SRA-1 (Homo sapiens), P21757 (protein)
chain: MEQWDHFHNQQEDTDSCSESVKFDARSMTALLPPNPKNSPSLQEKLKSFKAALIALYLLVFAVLIPLIGIVAAQLLKWETKNCSVSSTNANDITQSLTGKGNDSEEEMRFQEVFMEHMSNMEKRIQHILDMEANLMDTEHFQNFSMTTDQRFNDILLQLSTLFSSVQGHGNAIDEISKSLISLNTTLLDLQLNIENLNGKIQENTFKQQEEISKLEERVYNVSAEIMAMKEEQVHLEQEIKGEVKVLNNITNDLRLKDWEHSQTLRNITLIQGPPGPPGEKGDRGPTGESGPRGFPGPIGPPGLKGDRGAIGFPGSRGLPGYAGRPGNSGPKGQKGEKGSGNTLTPFTKVRLVGGSGPHEGRVEILHSGQWGTICDDRWEVRVGQVVCRSLGYPGVQAVHKAAHFGQGTGPIWLNEVFCFGRESSIEECKIRQWGTRACSHSEDAGVTCTL
glycan array binding signal (z-score) (Fuc(a1-2)Gal): 0.252 | glycan array binding signal (z-score) (Fuc(a1-2)Gal(b1-3)GalNAc): -0.344 | glycan array binding signal (z-score) [1]: -0.464 | glycan array binding signal (z-score) [2]: -0.556 | glycan array binding signal (z-score) [3]: -0.273 | glycan array binding signal (z-score) [4]: -0.38 | glycan array binding signal (z-score) [5]: -0.162 | glycan array binding signal (z-score) (Fuc(a1-2)Gal(b1-3)GlcNAc): -0.091 | glycan array binding signal (z-score) [6]: -0.292 | glycan array binding signal (z-score) [7]: 0.217 | glycan array binding signal (z-score) [8]: 0.012 | glycan array binding signal (z-score) [9]: -0.282 | glycan array binding signal (z-score) [10]: 0.179 | glycan array binding signal (z-score) [11]: -0.462 | glycan array binding signal (z-score) [12]: -0.251 | glycan array binding signal (z-score) [13]: 0.358 | glycan array binding signal (z-score) [14]: -0.524 | glycan array binding signal (z-score) [15]: 0.132 | glycan array binding signal (z-score) [16]: 0.064 | glycan array binding signal (z-score) [17]: -0.258 | glycan array binding signal (z-score) [18]: -0.462 | glycan array binding signal (z-score) [19]: -0.082 | glycan array binding signal (z-score) (Fuc(a1-2)Gal(b1-4)Glc): -0.37 | glycan array binding signal (z-score) (Fuc(a1-2)Gal(b1-4)Glc6S): 0.701 | glycan array binding signal (z-score) (Fuc(a1-2)Gal(b1-4)GlcNAc): -0.467 | glycan array binding signal (z-score) [20]: 0.604 | glycan array binding signal (z-score) [21]: -0.227 | glycan array binding signal (z-score) [22]: -0.606 | glycan array binding signal (z-score) [23]: -0.168 | glycan array binding signal (z-score) [24]: -0.417

Reference: the supplement of paper PMC8728848
